Test results as given in the supplement of paper PMC12645437, “Orthogonal IMiD-Degron Pairs Induce Selective Protein Degradation in Cells” (ACS Chemical Biology, 2025).
The other results are listed elsewhere or left out.

Target: no compound (DMSO)
Assay: log2 fold change of degron read counts, EGFP-low vs EGFP+ sorted cells; higher = lower degron-EGFP level without compound (poor expression or instability)
Settings: compound: DMSO control; 18 h
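Note: jurkat cells carrying a lentiviral library of mutant zinc finger degrons fused to EGFP plus mCherry, mCherry+ cells FACS sorted, degron abundance counted by next-generation sequencing.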

Sequence | log2 fold change of degron read counts
FKCNQCGRFFTQKGNLLRHIKL | -0.109
FNCEVCGACFTQKGNLLRHIKL | -2.42
LNCEICGFQCTQKGNLLRHIKL | -0.703
FICDICGAVFTQKGNLLRHIKL | -0.774
FSCNQCGACFTQKGNLLRHIKL | -0.247
FSCNICGARFTQKGNLLRHIKL | 0.025
FICDVCGAHFTQKGNLLRHIKL | -2.26
FMCPVCGAVFTQKGNLLRHIKL | 0.126
FYCDVCGANFTQKGNLLRHIKL | -1.15
FQCPICGALFTQKGNLLRHIKL | 0.53
FLCEVCGAGFTQKGNLLRHIKL | -1.12
FFCEICGAKFTQKGNLLRHIKL | -0.797
LDCEICGFKCTQKGNLLRHIKL | 0.00932
FLCNVCGAQFTQKGNLLRHIKL | -0.732
FQCPVCGANFTQKGNLLRHIKL | -0.504
LSCPICGFRCTQKGNLLRHIKL | 0.858
FICNQCGHKFTQKGNLLRHIKL | -0.698
FVCNQCGHLFTQKGNLLRHIKL | -0.213
LTCEICGFHCTQKGNLLRHIKL | -0.56
FHCNQCGRCFTQKGNLLRHIKL | 0.0934
FICNQCGHLFTQKGNLLRHIKL | 0.0385
FTCNQCGHFFTQKGNLLRHIKL | 0.727
FSCEQCGAFFTQKGNLLRHIKL | -1.33
FLCNQCGRSFTQKGNLLRHIKL | -0.404
LCCPICGFGCTQKGNLLRHIKL | 1.14

Sequence | log2 fold change of degron read counts
LWCEICGFQCTQKGNLLRHIKL | 0.802
FNCPICGRCFTQKGNLLRHIKL | -0.831
FGCSVCGHVFTQKGNLLRHIKL | 0.94
FMCPQCGAFFTQKGNLLRHIKL | 0.775
FWCDICGAAFTQKGNLLRHIKL | -1.47
FNCNICGACFTQKGNLLRHIKL | -0.861
FNCNQCGHMFTQKGNLLRHIKL | 0.751
FVCPICGAYFTQKGNLLRHIKL | 0.919
FTCPICGREFTQKGNLLRHIKL | -0.238
FGCPVCGAFFTQKGNLLRHIKL | 0.705
FECPVCGALFTQKGNLLRHIKL | -1.12
FICEICGACFTQKGNLLRHIKL | -1.83
FNCPICGHFFTQKGNLLRHIKL | 0.625
FHCEQCGAYFTQKGNLLRHIKL | -0.847
FWCEVCGACFTQKGNLLRHIKL | -0.93
FCCEICGHHFTQKGNLLRHIKL | -2.05
FGCPICGADFTQKGNLLRHIKL | -0.43
FHCPICGANFTQKGNLLRHIKL | -0.0257
FMCPICGRSFTQKGNLLRHIKL | 0.0664
FICSVCGHPFTQKGNLLRHIKL | -0.0295
FVCNQCGRIFTQKGNLLRHIKL | 0.664
LYCPICGFICTQKGNLLRHIKL | 1.81
FCCNQCGAVFTQKGNLLRHIKL | 0.0534
FTCEICGRPFTQKGNLLRHIKL | -1.7
FFCNVCGAIFTQKGNLLRHIKL | 0.413
